Reference: ChEMBL document CHEMBL1133837, “Discovery of selective hydroxamic acid inhibitors of tumor necrosis factor-alpha converting enzyme” (Bioorg Med Chem Lett, 2001)
pIC50: −log10 of the molar value.

What follows are compounds tested against T1, Interstitial collagenase (Homo sapiens, UniProt P03956).
T1 sequence (P03956 whole entry): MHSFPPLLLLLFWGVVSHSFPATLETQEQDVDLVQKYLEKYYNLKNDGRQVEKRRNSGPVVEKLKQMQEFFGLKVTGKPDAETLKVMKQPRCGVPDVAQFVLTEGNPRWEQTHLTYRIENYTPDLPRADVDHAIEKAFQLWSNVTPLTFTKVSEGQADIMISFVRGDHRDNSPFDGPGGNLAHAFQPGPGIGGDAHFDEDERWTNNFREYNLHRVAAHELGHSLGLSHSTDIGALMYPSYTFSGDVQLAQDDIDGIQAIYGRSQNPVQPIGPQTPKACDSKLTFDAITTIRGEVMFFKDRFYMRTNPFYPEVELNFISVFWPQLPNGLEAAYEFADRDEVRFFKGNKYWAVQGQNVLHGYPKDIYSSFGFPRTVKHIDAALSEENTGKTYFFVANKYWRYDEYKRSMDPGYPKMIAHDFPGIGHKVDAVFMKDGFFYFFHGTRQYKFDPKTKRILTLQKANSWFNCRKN
`CNC(=O)[C@@H]1Cc2ccc(cc2)OCCCC[C@H](C(=O)NO)[C@@H](CCCc2ccc(OC)c(OC)c2)C(=O)N1` was tested, and the pIC50 was 6.64. Compound `Cc1ccc(CCC[C@H]2C(=O)N[C@H](C(=O)c3ccccc3)Cc3ccc(cc3)OCCCC[C@@H]2C(=O)NO)cc1` has a pIC50 of 6.49. Work on `CNC(=O)[C@@H]1Cc2ccc(cc2)OCCCC[C@H](C(=O)NO)[C@@H](CCCc2cc(OC)c(OC)c(OC)c2)C(=O)N1` yielded a pIC50 of 5.64. `CCOc1ccc(CCC[C@H]2C(=O)N[C@H](C(=O)NC)Cc3ccc(cc3)OCCCC[C@@H]2C(=O)NO)cc1` showed a pIC50 of 8.17. `CNC(=O)[C@@H]1Cc2ccc(cc2)OCCCC[C@H](C(=O)NO)[C@@H](CCCc2cccc3ccccc23)C(=O)N1` gave a pIC50 of 7.55. `O=C(c1ccccc1)[C@@H]1Cc2ccc(cc2)OCCCC[C@H](C(=O)NO)[C@@H](CCCc2cc(Br)cc(Br)c2)C(=O)N1` showed a pIC50 of 5.04. `CNC(=O)[C@@H]1Cc2ccc(cc2)OCCCC[C@H](C(=O)NO)[C@@H](CCCc2cc(OC)ccc2OC)C(=O)N1` gave a pIC50 of 6.85. For `CNC(=O)[C@@H]1Cc2ccc(cc2)OCCCC[C@H](C(=O)NO)[C@@H](CCCc2ccc(Cl)cc2)C(=O)N1`, the pIC50 was 8.64.

Each compound was assayed against 72 kDa type IV collagenase (Homo sapiens, UniProt P08253).
Compound `CC1(C)SCCN(S(=O)(=O)c2ccc(Oc3cccnc3)cc2)[C@H]1C(=O)NO` has a pIC50 of 10.32. Work on `CNC(=O)[C@@H]1Cc2ccc(cc2)OCCCC[C@H](C(=O)NO)[C@@H](CCCc2cccc3ccccc23)C(=O)N1` yielded a pIC50 of 9.64. In the case of `COCCOc1cc(CCC[C@H]2C(=O)N[C@H](C(=O)c3ccccc3)Cc3ccc(cc3)OCCCC[C@@H]2C(=O)NO)cc(OC)c1`, the pIC50 was 5.40.

What follows are compounds tested against T2, Disintegrin and metalloproteinase domain-containing protein 17 (Homo sapiens, UniProt P78536).
Type: functional, cell-based, THP-1
With `CC1(C)SCCN(S(=O)(=O)c2ccc(Oc3cccnc3)cc2)[C@H]1C(=O)NO` the pIC50 was 5.07. `CNC(=O)[C@@H]1Cc2ccc(cc2)OCCCC[C@H](C(=O)NO)[C@@H](CCCc2cccc3ccccc23)C(=O)N1` gave a pIC50 of 6.36. For `COc1cc(Oc2ccc(S(=O)(=O)CC(C)C(=O)NO)cc2)cc(OC)c1OC` (configuration not stated), the pIC50 was 4.39.

Target: T2, Disintegrin and metalloproteinase domain-containing protein 17
Remark: another data set of the same source
`CC1(C)SCCN(S(=O)(=O)c2ccc(Oc3cccnc3)cc2)[C@H]1C(=O)NO` was tested, and the pIC50 was 8.10. `CNC(=O)[C@@H]1Cc2ccc(cc2)OCCCC[C@H](C(=O)NO)[C@@H](CCCc2cccc3ccccc23)C(=O)N1` showed a pIC50 of 8.22. In the case of `COc1cc(Oc2ccc(S(=O)(=O)CC(C)C(=O)NO)cc2)cc(OC)c1OC` (configuration not stated), the pIC50 was 8.19.
